Reference: PubChem BioAssay AID485364 (National Center for Advancing Translational Sciences (NCATS), 2010)
Hit rate of the full screen: of about 360,000 compounds, about 11,000 (3.1%) were called active. The shares of active, inactive and inconclusive entries below differ from those in the screen. Calls come from the whole dose curve; as a rule, active = well fitted inhibition curve with a large enough effect; inconclusive = small, poorly fitted or top-dose-only effect; inactive = no such curve, though single readings can be large or run the other way. No potency is given beside an inconclusive call; the fits are too rough.

target: Schistosoma mansoni thioredoxin glutathione reductase (TGR) (UniProt Q962Y6); experiment: qHTS Assay for the Inhibitors of Schistosoma Mansoni Peroxiredoxins; conditions: purified TGR, DTNB reduction, TNB absorbance 405 nm; series mostly up to 114 µM; note: nearly all actives have a fitted effect of over 60% in size
In short: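 TGR 20 nM + NADPH 100 uM (dispensed conc.), cpd preinc 15 min RT; start with NADPH (500 uM addition) then DTNB (15 mM addition). Kinetic TNB absorbance, 405 nm filter. Four-parameter Hill fit across titration.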
Potency is the fitted concentration of half-maximal effect; tags give direction and shape of the fitted curve.

Structure (SMILES)	Potency
CCSc1ccc([C@@H]2[C@@H]3C(=O)N(C)C(=O)[C@@H]3[C@]3(C(=O)OC)CCCCN23)cc1	inconclusive [inhibitor, partial curve]
O=C(N/N=C/c1cc2c3c(c1O)CCCN3CCC2)c1ccccc1O	inconclusive [inhibitor, partial curve]
CCC(=O)NNC(=S)NC(=O)c1ccc(C)cc1	inactive
COc1ccc(CNC(=O)CSc2nc(-c3ccc(OC)c(OC)c3)cc(C(F)(F)F)n2)cc1	inactive
CC(O)CN1C(=O)C(CC(=O)Nc2ccc(Cl)cc2)SC1=Nc1ccccc1 (stereo not drawn)	active: 17.8 µM
Cc1ccc(-n2nc3c(c2NC(=O)C(C)(C)C)CSC3)c(C)c1	inconclusive [inhibitor, partial curve]
Clc1ccc(C2=NOC(c3nnc(-c4ccccc4)o3)C2)cc1 (stereo not drawn)	inactive
O=[N+]([O-])c1cccc(CN2CCCCCC2)c1	inconclusive [inhibitor, single point]
O=C(Nc1ccc2c(c1)nc1n2CCN(C2CCCCC2)C1)c1ccco1	inconclusive [inhibitor, partial curve, poor fit]
S=C(NCCc1ccc(Cl)cc1)NCc1ccco1	inconclusive [inhibitor, full curve]
Cc1ccc(SCc2cc(=O)n3ccsc3n2)c(C)c1	inactive
COc1ccccc1N1CCN(C(=O)/C=C/c2ccc3c(c2)OCO3)CC1	inconclusive [inhibitor, full curve, poor fit]
Cc1c(CCC(=O)NCc2cccc(Cl)c2)c(=O)oc2c(C)c(O)ccc12	inactive
O=C(NCC(c1cccnc1)N1CCOCC1)Oc1ccccc1 (stereo not drawn)	inconclusive [inhibitor, full curve, poor fit]
Cc1nc(CCNC(=O)CC2C(=O)NCCN2Cc2ccccc2)nc2c1CCC2 (stereo not drawn)	inconclusive [inhibitor, partial curve]
O=C(C1=C[C@H](c2ccc(Br)cc2)C[C@H](OCCCCO)O1)N1CCOCC1	active: 35.5 µM
Cc1cccc(OCc2nnc(SCC(=O)N3c4ccccc4CC3C)n2C)c1C (stereo not drawn)	inconclusive [inhibitor, single point]
Cc1ccc(-c2ccc(C(=O)Nc3ccccc3)o2)c2ccccc12	active: 35.5 µM
CC(=O)c1ccc(NC(=O)c2ccc(-c3ccc(Cl)cc3)o2)cc1	active: 39.8 µM
CN=Cc1nc(-c2ccccc2)oc1O	inconclusive [inhibitor, partial curve, poor fit]
CN(C)C(=O)CN(c1ccc(F)c(Cl)c1)S(C)(=O)=O	inconclusive [inhibitor, single point]
Cc1nnc(NC(=O)c2ccc(-c3ccc([N+](=O)[O-])cc3)o2)s1	inconclusive [inhibitor, full curve, poor fit]
CCCC12CN3CC(CCC)(CN(C1)C3c1ccccc1)C2=O (stereo not drawn)	inactive
CC1CCCN(S(=O)(=O)c2ccc(N3CCCCS3(=O)=O)cc2)C1 (stereo not drawn)	inconclusive [inhibitor, single point]
OC1c2cc(Br)ccc2N=C2CCCN21 (stereo not drawn)	inactive

Structure (SMILES)	Potency
COc1ccc(C2(C)NC(=O)N(CC(=O)N3CCc4ccccc43)C2=O)cc1OC (stereo not drawn)	inactive
Cc1ccc(C)c(N2C(=O)N(C)c3ccccc3S2(=O)=O)c1	inactive
Cc1cc(C=C2C(=O)NC(=S)NC2=O)c(C)n1-c1ccc2c(c1)OCO2	inconclusive [inhibitor, partial curve]
Cn1cc(CN2CCC[C@H]2CO)c(-c2cccc(Cl)c2)n1	inactive
CCCOc1ccc(C(=O)NNC(=S)NC(=O)c2cccs2)cc1	inactive
CCOC(=O)c1c(C)c(-c2ccccc2)n(CC(=O)NC2CCCCCC2)c1C	inconclusive [inhibitor, partial curve]
Cc1cccn2c(=O)c3cc(C(=O)NCc4ccco4)c(=N)n(CCc4ccccc4)c3nc12	inconclusive [inhibitor, partial curve]
CCN1CCN(C(=O)CCc2nnc(CCc3c[nH]c4ccccc34)o2)[C@@H](C)C1=O	inconclusive [inhibitor, full curve, poor fit]
Cc1cccc(C(C)C)c1NC(=O)c1cc2ccccc2o1	inconclusive [inhibitor, single point]
O=C(CN1CCN(c2ccccc2)CC1)c1ccc2cc[nH]c2c1	inconclusive [inhibitor, partial curve]
CCCCn1c(N)c(N(CCOC)C(=O)c2ccc(-c3ccc(Cl)cc3)o2)c(=O)[nH]c1=O	active: 44.7 µM
O=C(NCc1ccccc1)c1csc(-c2cccnc2)n1	inactive
c1ccc(-c2nc3nonc3nc2-c2ccccc2)cc1	inconclusive [inhibitor, partial curve]
CN1C(=O)NC(c2ccc(O)cc2)C(C(=O)c2cccs2)C1(O)C(F)(F)F (stereo not drawn)	inconclusive [inhibitor, partial curve, poor fit]
COc1ccc(N/N=C(\C#N)C(=N)SCc2ccccc2)cc1	inconclusive [inhibitor, full curve]
COc1ccc(CCNC(=O)c2nnn(-c3cc(C)cc(C)c3)c2N)cc1OC	inconclusive [inhibitor, single point]
CCOC(=O)c1ccn(-c2nc(-c3ccco3)cc(C(F)(F)F)n2)n1	inconclusive [inhibitor, full curve]
COc1ccc(-c2cc(OC(=O)c3ccccc3)c3c(C)oc(C)c3c(=O)c2)cc1OC	inconclusive [inhibitor, partial curve]
OCCN1CCN(C(c2ccc(Cl)cc2Cl)c2sc3nc(-c4ccco4)nn3c2O)CC1 (stereo not drawn)	inactive
Cn1nc(-c2ccc(Cl)cc2)nc2c(=O)n(C)c(=O)nc1-2	inconclusive [inhibitor, full curve]
Cc1ccc(NC(=O)CN(C)S(=O)(=O)c2cnc[nH]2)c(C)c1	inactive
O=C(c1nc2ccccn2c1CNCCCn1nnc2ccccc21)N1CCOCC1	inconclusive [inhibitor, partial curve]
O=C(NN1C(=O)C2C3C=CC(O3)C2C1=O)c1cccc(Br)c1 (stereo not drawn)	active: 22.4 µM
Cc1sc(NC(=O)c2ccccc2F)c(CN2CCCCC2C)c1C (stereo not drawn)	inconclusive [inhibitor, partial curve]
O=C(C1=C(O)C(=O)N(CC2CCCO2)C1c1cccnc1)c1ccco1 (stereo not drawn)	inconclusive [inhibitor, partial curve]

Structure (SMILES)	Potency
Cc1cccc(C)c1NC(=O)CCCN1C(=O)CCn2nc(-c3cn(C)c4ccccc34)cc21	inactive
C[C@@]12CCC=C[C@H]1[C@H](c1ccc(C(F)(F)F)cc1)N(Cc1ccccc1)C2=O	inactive
CC1CCC2(CC1)NC(=O)N(CC(=O)N1CCN(S(=O)(=O)c3ccc4c(c3)CCC4)CC1)C2=O (stereo not drawn)	inactive
CS(=O)(=O)c1ccc2nc(NC(=O)CN3CCOCC3)sc2c1	inactive
CC(=NCCN1CCOCC1)c1c(O)n(Cc2ccccc2)c(=O)[nH]c1=O	inconclusive [inhibitor, partial curve]
O=C(CCOc1ccccc1)Nc1ccnn1C1CCN(Cc2ccc(O)cc2)CC1	active: 39.8 µM
O=C(O)CSc1nc2ccccc2n1Cc1ccccc1	inconclusive [inhibitor, full curve, poor fit]
N#CC1=C2SCN(Cc3ccco3)CN2C(=O)CC1c1ccc(Cl)cc1 (stereo not drawn)	inactive
COC(=O)c1cccc(NC2CC(=O)N(c3ccc(OC)c(OC)c3)C2=O)c1 (stereo not drawn)	active: 35.5 µM
Cc1cc(NC(=O)CC2CCCC2)n(-c2nc3ccccc3[nH]2)n1	active: 22.4 µM
Nc1c(S(=O)(=O)c2cccc(Cl)c2)c2nc3ccccc3nc2n1CCN1CCOCC1	inconclusive [inhibitor, full curve, poor fit]
Oc1ccc2c(c1)C1CCCC1(N1CCOCC1)O2 (stereo not drawn)	active: 28.2 µM
COC(=O)c1cc(=O)n(Cc2ccco2)c(=Nc2ccc(F)c(Cl)c2)s1	inconclusive [inhibitor, partial curve]
CSc1ccccc1OCc1cc(C(=O)N(C)Cc2ccc(C)o2)no1	active: 7.94 µM
CN(C)c1ccc(C(C#N)c2ccc(Cl)cc2)nn1 (stereo not drawn)	inconclusive [inhibitor, single point]
CCOc1ccc(S(=O)(=O)N2CCOCC2)cc1NC(=O)CN1C(=O)NC(CC)(c2ccccc2)C1=O (stereo not drawn)	inactive
CC(=O)[C@H]1[C@H](c2cccc(Cl)c2)C(C#N)(C#N)[C@@H]2c3ccccc3C=CN21	inconclusive [inhibitor, partial curve]
COc1ccccc1-c1ccc(/C=C2/C=C(CC(C)C)OC2=O)o1	active: 35.5 µM
CC/C(O)=C1\C(=O)CC(c2ccccc2)CC1=NCCc1c(C)[nH]c2ccc(C)cc12 (stereo not drawn)	inactive
CSC1=C(C#N)C(c2ccccc2C)C(C#N)=C(N)N1 (stereo not drawn)	inconclusive [inhibitor, single point]
Cn1c(=O)n(C)c2cc(N3CCOCC3)c(NC(=O)c3c(F)cccc3F)cc21	inactive
COc1ccc(CNC(=O)c2ccc(Cn3cc(Br)cn3)o2)cc1	inconclusive [inhibitor, single point]
COc1ccc2cc3c(nc2c1)OCC3	inconclusive [inhibitor, single point]
